For some of these results: Part of at least one peptide drawing is inferred or uncertain, most often the ends. For some of these results: For at least one compound, name, drawing or mass did not settle the structure. Some of these results come from one statement about several compounds together.
Key:
GCGR = GCGR (Homo sapiens, UniProt P47871); assay: cAMP receptor activation assay, human GCGR cloned into CHO cells (DiscoverX LeadHunter / cAMP Hunter); assay type: cell-based; set-up: host or cells: CHO-K1; conditions: 0.1% BSA containing buffers
Sequence of UniProt P47871 (P47871 26-477): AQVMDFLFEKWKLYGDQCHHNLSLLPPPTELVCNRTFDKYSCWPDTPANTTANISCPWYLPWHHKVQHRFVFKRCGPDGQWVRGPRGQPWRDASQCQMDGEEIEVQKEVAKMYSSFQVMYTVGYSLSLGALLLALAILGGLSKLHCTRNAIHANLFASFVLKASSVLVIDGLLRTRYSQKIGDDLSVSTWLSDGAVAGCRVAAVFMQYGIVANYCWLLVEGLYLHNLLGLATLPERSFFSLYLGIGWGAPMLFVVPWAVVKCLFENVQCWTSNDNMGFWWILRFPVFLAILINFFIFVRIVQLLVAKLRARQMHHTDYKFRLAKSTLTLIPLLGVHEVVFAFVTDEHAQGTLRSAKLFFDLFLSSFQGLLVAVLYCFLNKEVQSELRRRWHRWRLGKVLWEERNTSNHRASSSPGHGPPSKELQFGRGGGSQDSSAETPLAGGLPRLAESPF

human GLP-1R = molecular target: T1, human GLP-1R (Homo sapiens, UniProt P43220); assay: cAMP receptor activation assay, human GLP-1R cloned into CHO cells (DiscoverX LeadHunter / cAMP Hunter); assay type: cell-based; conditions: 0.1% BSA containing buffers
T1 construct: host or cells: CHO-K1
T1 sequence (P43220 24-463): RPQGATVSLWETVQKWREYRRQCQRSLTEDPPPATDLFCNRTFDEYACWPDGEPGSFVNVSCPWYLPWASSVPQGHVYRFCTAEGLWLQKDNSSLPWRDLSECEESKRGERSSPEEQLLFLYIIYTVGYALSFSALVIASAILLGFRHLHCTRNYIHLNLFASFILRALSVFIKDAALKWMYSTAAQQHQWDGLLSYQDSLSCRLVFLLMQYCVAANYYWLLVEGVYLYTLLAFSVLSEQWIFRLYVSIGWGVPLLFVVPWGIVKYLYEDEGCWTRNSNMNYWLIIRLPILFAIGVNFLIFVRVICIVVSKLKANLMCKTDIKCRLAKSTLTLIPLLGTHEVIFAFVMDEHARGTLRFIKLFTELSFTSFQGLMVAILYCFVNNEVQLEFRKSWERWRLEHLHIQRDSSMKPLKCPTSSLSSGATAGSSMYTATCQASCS

serum albumin = serum albumin (Bos taurus, UniProt P02769); assay: serum albumin (BSA) binding; conditions: data not shown
Sequence of serum albumin (P02769 25-607): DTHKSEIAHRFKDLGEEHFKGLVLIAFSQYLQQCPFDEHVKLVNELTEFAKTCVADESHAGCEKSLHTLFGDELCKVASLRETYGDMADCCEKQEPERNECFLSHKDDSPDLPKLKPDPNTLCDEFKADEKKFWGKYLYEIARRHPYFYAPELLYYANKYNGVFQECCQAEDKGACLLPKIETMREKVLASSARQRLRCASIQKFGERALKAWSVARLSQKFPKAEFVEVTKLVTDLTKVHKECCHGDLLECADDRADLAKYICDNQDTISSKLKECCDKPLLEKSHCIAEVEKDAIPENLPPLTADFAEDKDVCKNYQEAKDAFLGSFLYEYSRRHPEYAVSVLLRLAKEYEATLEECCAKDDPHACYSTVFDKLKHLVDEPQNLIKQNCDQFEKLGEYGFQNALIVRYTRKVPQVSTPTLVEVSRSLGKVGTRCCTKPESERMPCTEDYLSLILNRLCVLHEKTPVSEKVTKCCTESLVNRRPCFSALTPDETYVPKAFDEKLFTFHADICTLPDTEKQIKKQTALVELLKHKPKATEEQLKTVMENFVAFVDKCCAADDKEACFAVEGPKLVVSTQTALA

[1] = cited from earlier work

| Structure (SMILES) | pEC50 (SE) huGCGR (GCGR) | pEC50 (SE) hu GLP-1 (human GLP-1R) | also measured |
| --- | --- | --- | --- |
| CCCCCCCCCCCCCCO[C@@H]1O[C@H](CO[C@H]2O[C@H](C(=O)NCCCC[C@H](NC(=O)[C@@H](NC(=O)[C@H](Cc3ccccc3)NC(=O)[C@H](CCC(=O)O)NC(=O)[C@@H]3CCCCNC(=O)CC[C@H](NC(=O)[C@H](CC(=O)O)NC(=O)[C@H](CC(C)C)NC(=O)[C@H](Cc4ccc(O)cc4)NC(=O)[C@H](CCCCN)NC(=O)[C@H](CO)NC(=O)[C@H](Cc4ccc(O)cc4)NC(=O)[C@H](CC(=O)O)NC(=O)[C@H](CO)NC(=O)[C@@H](NC(=O)[C@H](Cc4ccccc4)NC(=O)[C@@H](NC(=O)CNC(=O)[C@H](CCC(N)=O)NC(=O)C(C)(C)NC(=O)[C@@H](N)Cc4c[nH]cn4)[C@@H](C)O)[C@@H](C)O)C(=O)N[C@@H](CCC(N)=O)C(=O)N[C@@H](C)C(=O)N[C@@H](C)C(=O)N3)[C@@H](C)CC)C(=O)N[C@@H](Cc3c[nH]c4ccccc34)C(=O)N[C@@H](CC(C)C)C(=O)N[C@@H](CC(C)C)C(=O)N[C@@H](CCC(N)=O)C(=O)N[C@H](C(N)=O)[C@@H](C)O)[C@H](O)[C@H](O)[C@H]2O)[C@@H](O)[C@H](O)[C@H]1O [analogue 9] | 10.45 (0.01) | 11.31 (0.04) |  |
| CC[C@H](C)[C@H](NC(=O)[C@H](Cc1ccccc1)NC(=O)[C@H](CCC(=O)O)NC(=O)[C@@H]1CCCCNC(=O)CC[C@H](NC(=O)[C@H](CC(=O)O)NC(=O)[C@H](CC(C)C)NC(=O)[C@H](Cc2ccc(O)cc2)NC(=O)[C@H](CCCCN)NC(=O)[C@H](CO)NC(=O)[C@H](Cc2ccc(O)cc2)NC(=O)[C@H](CC(=O)O)NC(=O)[C@H](CO)NC(=O)[C@@H](NC(=O)[C@H](Cc2ccccc2)NC(=O)[C@@H](NC(=O)CNC(=O)[C@H](CCC(N)=O)NC(=O)C(C)(C)NC(=O)[C@@H](N)Cc2c[nH]cn2)[C@@H](C)O)[C@@H](C)O)C(=O)N[C@@H](CCC(N)=O)C(=O)N[C@@H](C)C(=O)N[C@@H](C)C(=O)N1)C(=O)N[C@@H](CCCCNC(=O)[C@H]1O[C@@H](OCCCCCCCCCCCCCCCC(=O)O)[C@H](O)[C@@H](O)[C@@H]1O)C(=O)N[C@@H](Cc1c[nH]c2ccccc12)C(=O)N[C@@H](CC(C)C)C(=O)N[C@@H](CC(C)C)C(=O)N[C@@H](CCC(N)=O)C(=O)N[C@H](C(N)=O)[C@@H](C)O [analogue 15] |  |  | binding to serum albumin (serum albumin): > 99% |
| CC[C@H](C)[C@H](NC(=O)[C@H](Cc1ccccc1)NC(=O)[C@H](CCC(=O)O)NC(=O)[C@@H]1CCCCNC(=O)CC[C@H](NC(=O)[C@H](CC(=O)O)NC(=O)[C@H](CC(C)C)NC(=O)[C@H](Cc2ccc(O)cc2)NC(=O)[C@H](CCCCN)NC(=O)[C@H](CO)NC(=O)[C@H](Cc2ccc(O)cc2)NC(=O)[C@H](CC(=O)O)NC(=O)[C@H](CO)NC(=O)[C@@H](NC(=O)[C@H](Cc2ccccc2)NC(=O)[C@@H](NC(=O)CNC(=O)[C@H](CCC(N)=O)NC(=O)C(C)(C)NC(=O)[C@@H](N)Cc2c[nH]cn2)[C@@H](C)O)[C@@H](C)O)C(=O)N[C@@H](CCC(N)=O)C(=O)N[C@@H](C)C(=O)N[C@@H](C)C(=O)N1)C(=O)N[C@@H](CCCCNC(=O)[C@H]1O[C@@H](OCCCCCCCCCCCCCCCCCC(=O)O)[C@H](O)[C@@H](O)[C@@H]1O)C(=O)N[C@@H](Cc1c[nH]c2ccccc12)C(=O)N[C@@H](CC(C)C)C(=O)N[C@@H](CC(C)C)C(=O)N[C@@H](CCC(N)=O)C(=O)N[C@H](C(N)=O)[C@@H](C)O [analogue 16] |  |  | binding to serum albumin (serum albumin): > 99% |
| CCCCCCCCCCCCCCCC(=O)N[C@@H](CCC(=O)NCCCC[C@H](NC(=O)[C@H](C)NC(=O)[C@H](C)NC(=O)[C@H](CCC(N)=O)NC(=O)CNC(=O)[C@H](CCC(=O)O)NC(=O)[C@H](CC(C)C)NC(=O)[C@H](Cc1ccc(O)cc1)NC(=O)[C@H](CO)NC(=O)[C@H](CO)NC(=O)[C@@H](NC(=O)[C@H](CC(=O)O)NC(=O)[C@H](CO)NC(=O)[C@@H](NC(=O)[C@H](Cc1ccccc1)NC(=O)[C@@H](NC(=O)CNC(=O)[C@H](CCC(=O)O)NC(=O)[C@H](C)NC(=O)[C@@H](N)Cc1cnc[nH]1)[C@@H](C)O)[C@@H](C)O)C(C)C)C(=O)N[C@@H](CCC(=O)O)C(=O)N[C@@H](Cc1ccccc1)C(=O)N[C@H](C(=O)N[C@@H](C)C(=O)N[C@@H](Cc1c[nH]c2ccccc12)C(=O)N[C@@H](CC(C)C)C(=O)N[C@H](C(=O)N[C@@H](CCCNC(=N)N)C(=O)NCC(=O)N[C@@H](CCCNC(=N)N)C(=O)NCC(=O)O)C(C)C)[C@@H](C)CC)C(=O)O [liraglutide] |  |  | weight loss over 26 weeks ([1]; clinical studies): 5.5%; body weight lost by patients ([1]; clinical trial in NASH patients): 5.5% |
| CCCCCCCCCCCCO[C@@H]1O[C@H](CO[C@H]2O[C@H](C(=O)NCCCC[C@H](NC(=O)[C@@H](NC(=O)[C@H](Cc3ccccc3)NC(=O)[C@H](CCC(=O)O)NC(=O)[C@@H]3CCCCNC(=O)CC[C@H](NC(=O)[C@H](CC(=O)O)NC(=O)[C@H](CC(C)C)NC(=O)[C@H](Cc4ccc(O)cc4)NC(=O)[C@H](CCCCN)NC(=O)[C@H](CO)NC(=O)[C@H](Cc4ccc(O)cc4)NC(=O)[C@H](CC(=O)O)NC(=O)[C@H](CO)NC(=O)[C@@H](NC(=O)[C@H](Cc4ccccc4)NC(=O)[C@@H](NC(=O)CNC(=O)[C@H](CCC(N)=O)NC(=O)C(C)(C)NC(=O)[C@@H](N)Cc4c[nH]cn4)[C@@H](C)O)[C@@H](C)O)C(=O)N[C@@H](CCC(N)=O)C(=O)N[C@@H](C)C(=O)N[C@@H](C)C(=O)N3)[C@@H](C)CC)C(=O)N[C@@H](Cc3c[nH]c4ccccc34)C(=O)N[C@@H](CC(C)C)C(=O)N[C@@H](CC(C)C)C(=O)N[C@@H](CCC(N)=O)C(=O)N[C@H](C(N)=O)[C@@H](C)O)[C@H](O)[C@H](O)[C@H]2O)[C@@H](O)[C@H](O)[C@H]1O [analogue 8] | 10.42 (0.02) | 10.49 (0.03) |  |
| CCCCCCCCCCCCCCCCCCO[C@@H]1O[C@H](CO[C@H]2O[C@H](C(=O)NCCCC[C@H](NC(=O)[C@@H](NC(=O)[C@H](Cc3ccccc3)NC(=O)[C@H](CCC(=O)O)NC(=O)[C@@H]3CCCCNC(=O)CC[C@H](NC(=O)[C@H](CC(=O)O)NC(=O)[C@H](CC(C)C)NC(=O)[C@H](Cc4ccc(O)cc4)NC(=O)[C@H](CCCCN)NC(=O)[C@H](CO)NC(=O)[C@H](Cc4ccc(O)cc4)NC(=O)[C@H](CC(=O)O)NC(=O)[C@H](CO)NC(=O)[C@@H](NC(=O)[C@H](Cc4ccccc4)NC(=O)[C@@H](NC(=O)CNC(=O)[C@H](CCC(N)=O)NC(=O)C(C)(C)NC(=O)[C@@H](N)Cc4c[nH]cn4)[C@@H](C)O)[C@@H](C)O)C(=O)N[C@@H](CCC(N)=O)C(=O)N[C@@H](C)C(=O)N[C@@H](C)C(=O)N3)[C@@H](C)CC)C(=O)N[C@@H](Cc3c[nH]c4ccccc34)C(=O)N[C@@H](CC(C)C)C(=O)N[C@@H](CC(C)C)C(=O)N[C@@H](CCC(N)=O)C(=O)N[C@H](C(N)=O)[C@@H](C)O)[C@H](O)[C@H](O)[C@H]2O)[C@@H](O)[C@H](O)[C@H]1O [analogue 11] | 9.31 (0.02) | 10.47 (0.04) |  |
| CCCCCCCCCCCCCCCCO[C@@H]1O[C@H](CO[C@H]2O[C@H](C(=O)NCCCC[C@H](NC(=O)[C@@H](NC(=O)[C@H](Cc3ccccc3)NC(=O)[C@H](CCC(=O)O)NC(=O)[C@@H]3CCCCNC(=O)CC[C@H](NC(=O)[C@H](CC(=O)O)NC(=O)[C@H](CC(C)C)NC(=O)[C@H](Cc4ccc(O)cc4)NC(=O)[C@H](CCCCN)NC(=O)[C@H](CO)NC(=O)[C@H](Cc4ccc(O)cc4)NC(=O)[C@H](CC(=O)O)NC(=O)[C@H](CO)NC(=O)[C@@H](NC(=O)[C@H](Cc4ccccc4)NC(=O)[C@@H](NC(=O)CNC(=O)[C@H](CCC(N)=O)NC(=O)C(C)(C)NC(=O)[C@@H](N)Cc4c[nH]cn4)[C@@H](C)O)[C@@H](C)O)C(=O)N[C@@H](CCC(N)=O)C(=O)N[C@@H](C)C(=O)N[C@@H](C)C(=O)N3)[C@@H](C)CC)C(=O)N[C@@H](Cc3c[nH]c4ccccc34)C(=O)N[C@@H](CC(C)C)C(=O)N[C@@H](CC(C)C)C(=O)N[C@@H](CCC(N)=O)C(=O)N[C@H](C(N)=O)[C@@H](C)O)[C@H](O)[C@H](O)[C@H]2O)[C@@H](O)[C@H](O)[C@H]1O [analogue 10] | 9.65 (0.03) | 11.10 (0.02) |  |
| CCCCCCCCCCCCCCCCO[C@@H]1O[C@H](CO[C@H]2O[C@H](C(=O)NCCCC[C@@H]3NC(=O)[C@@H](NC(=O)[C@H](CC(=O)O)NC(=O)[C@H](CC(C)C)NC(=O)[C@H](Cc4ccc(O)cc4)NC(=O)[C@H](CCCCN)NC(=O)[C@H](CO)NC(=O)[C@H](Cc4ccc(O)cc4)NC(=O)[C@H](CC(=O)O)NC(=O)[C@H](CO)NC(=O)[C@@H](NC(=O)[C@H](Cc4ccccc4)NC(=O)[C@@H](NC(=O)CNC(=O)[C@H](CCC(N)=O)NC(=O)C(C)(C)NC(=O)[C@@H](N)Cc4c[nH]cn4)[C@@H](C)O)[C@@H](C)O)CCC(=O)NCCCC[C@@H](C(=O)N[C@@H](CCC(=O)O)C(=O)N[C@@H](Cc4ccccc4)C(=O)N[C@H](C(=O)N[C@@H](CCC(N)=O)C(=O)N[C@@H](Cc4c[nH]c5ccccc45)C(=O)N[C@@H](CC(C)C)C(=O)N[C@@H](CC(C)C)C(=O)N[C@@H](CCC(N)=O)C(=O)N[C@H](C(N)=O)[C@@H](C)O)[C@@H](C)CC)NC(=O)[C@H](C)NC(=O)[C@H](C)NC3=O)[C@H](O)[C@H](O)[C@H]2O)[C@@H](O)[C@H](O)[C@H]1O [analogue 12] | 10.35 (0.02) |  |  |

— patent publication US20210290732A1, “GLP-1R and GCGR Agonists, Formulations, and Methods of Use” (Spitfire Pharma LLC, priority 2020, published 2021)
